From PubChem BioAssay AID485313 (National Center for Advancing Translational Sciences (NCATS), 2010)
The whole screen tested about 320,000 compounds, of which about 7,600 (2.4%) were called active. The inconclusive results got no clear call from the source; some entries with a clear call stand among them for comparison. Calls follow the shape of the dose curve; as a rule, active = well fitted activation curve with a large enough effect; inconclusive = small, poorly fitted or top-dose-only effect; inactive = no such curve, though single readings can be large or run the other way. Potencies of inconclusive entries are left out as doubtful fits.

test: qHTS Assay for NPC1 Promoter Activators; settings: Huh7 NPC1 promoter luciferase reporter, 24 h; series mostly up to 9.22 µM; activation: at the top concentration; also: nearly all actives have a fitted effect of over 60% in size;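 as to activation: reporter is driven by a mutant NPC1 promoter; % of control where 0% means no effect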
Method in brief: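 Stable NPC1-promoter luciferase Huh7 line; cpd (DMSO) 24 h, 37 °C, 5% CO2; Amplite luciferase reagent 10 min RT; luminescence readout. qHTS format.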
Potency is read from the fitted curve at half-maximal effect; tags tell the direction and shape of the fitted curve.

Row | Structure (SMILES) | Potency | activation
1 | Cc1cccc2c(N=NC(=O)c3ccc(NS(=O)(=O)c4cccs4)cc3)c(O)[nH]c12 | inconclusive [activator, partial curve] | 
2 | COc1ccc(-c2nnc(SCc3cccnc3)o2)cc1 | inconclusive [activator, single point] | 
3 | O=C(Nc1ccccc1N1CCOCC1)c1ccc2ccccc2c1 |  | inactive: 8.04%
4 | Cc1ccc2c(c1)c1c(n2C)-c2[nH]ncc2CC1 |  | inactive: 6.61%
5 | Cc1cc(Nc2ccccc2)n(C(=O)c2ccc(N)cc2)n1 | inconclusive [activator, partial curve] | 
6 | N/C(=N\OC(=O)Cc1cccc2ccccc12)c1ccccn1 |  | inactive: 25.4%
7 | CC(C)(C)c1ccc(OCc2ccc(C(=O)N/N=C3\CC4CC=CC34)cc2)cc1 (stereo not given) | inconclusive [activator, partial curve] | 
8 | COc1ccc(C(=O)Nc2ccc(Cn3ccnc3)cc2)cc1OC | inconclusive [activator, single point] | 
9 | C/C(=N\NC(=O)c1ccc(NS(=O)(=O)c2cccs2)cc1)c1ccc(O)cc1O |  | inactive: -3.16%
10 | Cc1nc(-c2ccc(NC(=O)c3ccco3)cc2)cs1 | inconclusive [activator, partial curve, poor fit] | 
11 | COc1cccc(/C=N/n2cnc3cc(C)c(C)cc32)c1OC | inconclusive [activator, partial curve] | 
12 | Fc1ccccc1Nc1nc2ccccc2o1 | active: 0.708 µM | 
13 | Cc1cccc(NC(=O)CSc2nnc(-c3ccccc3C)o2)c1 | inconclusive [activator, single point] | 
14 | CC(=O)N1CCN(c2ccccc2NC(=O)c2cccc3c(Cl)cccc23)CC1 |  | inactive: 11%
15 | O=C1OC(c2ccccc2)=C/C1=C\N1CCOCC1 | inconclusive [activator, single point] | 
16 | CCCC(=O)Nc1nnc(/C=C/c2ccccc2)s1 | inconclusive [activator, single point] | 
17 | O=C(NC(=S)NCCc1ccccc1)c1ccccc1F |  | inactive: 22.4%
18 | COc1ccc2c(c1)Cc1sc(NC(=O)c3ccccc3)nc1-2 | inconclusive [activator, partial curve] | 
19 | COCCN1CCN(C(=O)c2cc(COc3cc(C)ccc3C)on2)CC1 | inconclusive [activator, single point] | 
20 | C(=N\NCc1ccccc1)/c1ccc2nccnc2c1 | active: 3.55 µM | 
21 | Cc1ccc(NC(=O)c2cc(F)c(F)cc2Cl)nc1 | active: 1.78 µM | 
22 | COc1ccc(-c2c(C)nn3c(N4CCN(Cc5ccccc5)CC4)cc(C)nc23)cc1OC |  | inactive: -4.24%
23 | OCc1nc2ccccc2n1CCCOc1ccccc1 | inconclusive [activator, partial curve] | 
24 | COc1cccc(C(=O)Nc2ccc(F)cc2F)c1 | inconclusive [activator, single point] | 
25 | O=C(CSc1ncn[nH]1)N(C1CCCCC1)C1CCCCC1 |  | inactive: -4.25%

Row | Structure (SMILES) | Potency | activation
26 | CC(=O)Nc1ccc(NC(=O)Nc2cccc(Cl)c2)cc1 |  | inactive: 28.6%
27 | CCn1c(O)c(/C=C2\C=Nc3ccccc32)sc1=O | inconclusive [activator, single point] | 
28 | CC(=O)c1cccc(NC(=S)NC(=O)c2ccc(Br)cc2)c1 | inconclusive [activator, partial curve] | 
29 | CCOc1ccccc1NC(=O)c1ccc2c(c1)C(=O)N(CC(C)C)C2=O | inconclusive [activator, single point] | 
30 | COc1ccc2sc(NC(=O)CC(C)C)nc2c1 | inconclusive [activator, partial curve] | 
31 | Cc1ccccc1-c1nnc(CS(=O)(=O)c2ccccc2)o1 | active: 1.12 µM | 
32 | COc1ccc(-c2nc3cc([N+](=O)[O-])ccc3o2)cc1OC | inconclusive [activator, single point] | 
33 | C(#Cc1ccc2c(c1)COc1c3ccccc3nn1-2)c1ccccc1 | inconclusive [activator, single point] | 
34 | COCCNC(=O)CN1C(=O)NC(c2ccccc2)(c2ccccc2)C1=O | inconclusive [activator, single point] | 
35 | Cc1ccccc1-c1nnc(Cc2ccccc2)o1 | active: 3.98 µM | 
36 | Nc1ccc(N=Nc2ccccc2)c2ccccc12 | inconclusive [activator, single point] | 
37 | CC(=O)N1CCc2c(sc(NC(=O)c3ccc([N+](=O)[O-])o3)c2C#N)C1 | inconclusive [activator, partial curve] | 
38 | NS(=O)(=O)c1cccc(NC(=O)CN2CCCc3ccccc32)c1 | inconclusive [activator, single point] | 
39 | COc1ccc(NC(=O)NCCC2=CCCCC2)cc1 | active: 3.98 µM | 
40 | C/C(=N\Nc1cccc2cccnc12)c1ccc(N)cc1 | active: 2.82 µM | 
41 | O=C(NCc1ccco1)c1cc2ccc(O)cc2oc1=O | inconclusive [activator, single point] | 
42 | Cc1ccc(C(=O)COC(=O)c2cccc([N+](=O)[O-])c2)s1 |  | inactive: 10.8%
43 | CCCn1c(=O)c(C(=O)N/N=C/c2ccccc2F)c(O)c2ccccc21 | inconclusive [activator, single point] | 
44 | CC(C)(C)C(=O)Nc1scc(-c2ccc(-c3ccccc3)cc2)c1C(=O)O |  | inactive: 1.7%
45 | CCCOc1ncnc2c1[nH]c1ccc(OC)cc12 | active: 1.12 µM | 
46 | O=[N+]([O-])c1ccccc1N/N=C\c1ccccc1Cl | inconclusive [activator, single point] | 
47 | c1ccc(-n2cnnc2SCc2cn3ccccc3n2)cc1 |  | inactive: -7.14%
48 | O=C(Nc1ccccn1)c1ccc(S(=O)(=O)N2CCCCC2)cc1 | inconclusive [activator, partial curve] | 
49 | Cn1ccnc1SCC(=O)Nc1ccc2nc(SCC(=O)NC3CC3)sc2c1 | inconclusive [activator, single point] | 
50 | O=C(Nc1ccc2[nH]ccc2c1)c1cccs1 | active: 1.58 µM | 
